Test results reported in the supplement of paper PMC12645437, “Orthogonal IMiD-Degron Pairs Induce Selective Protein Degradation in Cells” (ACS Chemical Biology, 2025).
The list shows a part of the results.

B1: Q9UKT9 (peptide)
chain: FNCNQCGACFTQKGNLLRHIKL
B2: Q9UKT9 (peptide)
chain: FHCDICGATFTQKGNLLRHIKL
B3: Q9UKT9 (peptide)
chain: FSCEICGRNFTQKGNLLRHIKL
B4: Q9UKT9 (peptide)
chain: FCCEICGRDFTQKGNLLRHIKL
B5: Q9UKT9 (peptide)
chain: FYCPQCGAQFTQKGNLLRHIKL
B6: Q9UKT9 (peptide)
chain: FMCSVCGHIFTQKGNLLRHIKL
B7: Q9UKT9 (peptide)
chain: FRCPQCGAIFTQKGNLLRHIKL
B8: Q9UKT9 (peptide)
chain: FSCPICGHLFTQKGNLLRHIKL
B9: Q9UKT9 (peptide)
chain: LQCNQCGFCCTQKGNLLRHIKL
B10: Q9UKT9 (peptide)
chain: FCCPICGRSFTQKGNLLRHIKL
B11: Q9UKT9 (peptide)
chain: FICSVCGHWFTQKGNLLRHIKL
B12: Q9UKT9 (peptide)
chain: FTCEICGHCFTQKGNLLRHIKL
B13: Q9UKT9 (peptide)
chain: FQCEICGAMFTQKGNLLRHIKL
B14: Q9UKT9 (peptide)
chain: FHCPQCGAKFTQKGNLLRHIKL
B15: Q9UKT9 (peptide)
chain: FICPICGAMFTQKGNLLRHIKL
B16: Q9UKT9 (peptide)
chain: FFCEICGHSFTQKGNLLRHIKL
B17: Q9UKT9 (peptide)
chain: FLCNQCGHGFTQKGNLLRHIKL
B18: Q9UKT9 (peptide)
chain: FTCPQCGAQFTQKGNLLRHIKL
B19: Q9UKT9 (peptide)
chain: FGCEICGRSFTQKGNLLRHIKL
B20: Q9UKT9 (peptide)
chain: FSCEICGAAFTQKGNLLRHIKL
B21: Q9UKT9 (peptide)
chain: FNCSVCGHIFTQKGNLLRHIKL
B22: Q9UKT9 (peptide)
chain: FMCDVCGASFTQKGNLLRHIKL
B23: Q9UKT9 (peptide)
chain: FYCNQCGRTFTQKGNLLRHIKL
B24: Q9UKT9 (peptide)
chain: LGCEICGFRCTQKGNLLRHIKL
B25: Q9UKT9 (peptide)
chain: FVCPQCGATFTQKGNLLRHIKL
B26: Q9UKT9 (peptide)
chain: FHCPICGARFTQKGNLLRHIKL
B27: Q9UKT9 (peptide)
chain: FACPQCGACFTQKGNLLRHIKL
B28: Q9UKT9 (peptide)
chain: FQCNQCGRIFTQKGNLLRHIKL
B29: Q9UKT9 (peptide)
chain: LRCNQCGFNCTQKGNLLRHIKL
B30: Q9UKT9 (peptide)
chain: FNCEICGRHFTQKGNLLRHIKL
B31: Q9UKT9 (peptide)
chain: LDCPICGFLCTQKGNLLRHIKL
B32: Q9UKT9 (peptide)
chain: FTCEVCGANFTQKGNLLRHIKL
B33: Q9UKT9 (peptide)
chain: FMCPICGRKFTQKGNLLRHIKL
B34: Q9UKT9 (peptide)
chain: LNCPICGFICTQKGNLLRHIKL
B35: Q9UKT9 (peptide)
chain: FQCPICGRGFTQKGNLLRHIKL
B36: Q9UKT9 (peptide)
chain: FMCDICGANFTQKGNLLRHIKL
B37: Q9UKT9 (peptide)
chain: FQCDVCGAFFTQKGNLLRHIKL
B38: Q9UKT9 (peptide)
chain: FKCEQCGACFTQKGNLLRHIKL
B39: Q9UKT9 (peptide)
chain: FHCEICGRSFTQKGNLLRHIKL
B40: Q9UKT9 (peptide)
chain: LACNQCGFGCTQKGNLLRHIKL
B41: Q9UKT9 (peptide)
chain: FKCPICGRAFTQKGNLLRHIKL
B42: Q9UKT9 (peptide)
chain: FLCEICGRMFTQKGNLLRHIKL
B43: Q9UKT9 (peptide)
chain: LGCPICGFHCTQKGNLLRHIKL
B44: Q9UKT9 (peptide)
chain: LTCPICGFQCTQKGNLLRHIKL
B45: Q9UKT9 (peptide)
chain: FACNQCGAKFTQKGNLLRHIKL
B46: Q9UKT9 (peptide)
chain: FRCDICGANFTQKGNLLRHIKL
B47: Q9UKT9 (peptide)
chain: FVCEVCGAYFTQKGNLLRHIKL
B48: Q9UKT9 (peptide)
chain: FDCEICGAQFTQKGNLLRHIKL
B49: Q9UKT9 (peptide)
chain: FRCEICGRCFTQKGNLLRHIKL
B50: Q9UKT9 (peptide)
chain: FSCDQCGAMFTQKGNLLRHIKL

Target: no compound (DMSO)
Experiment: log2 fold change of degron read counts, EGFP-low vs EGFP+ sorted cells; higher = lower degron-EGFP level without compound (poor expression or instability)
Conditions: compound: DMSO control; 18 h
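Further: jurkat cells carrying a lentiviral library of mutant zinc finger degrons fused to EGFP plus mCherry, mCherry+ cells FACS sorted, degron abundance counted by next-generation sequencing.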

| Sequence | log2 fold change of degron read counts |
| --- | --- |
| B1 | -0.745 |
| B2 | -1.96 |
| B3 | -1.68 |
| B4 | -1.64 |
| B5 | -0.0917 |
| B6 | 0.528 |
| B7 | -1.03 |
| B8 | -0.339 |
| B9 | 0.0806 |
| B10 | -0.392 |
| B11 | 0.133 |
| B12 | -2.55 |
| B13 | -1.98 |
| B14 | -0.605 |
| B15 | 0.627 |
| B16 | -0.833 |
| B17 | -0.145 |
| B18 | -0.324 |
| B19 | -1.51 |
| B20 | -1.57 |
| B21 | 0.862 |
| B22 | -2.17 |
| B23 | 0.154 |
| B24 | 0.517 |
| B25 | -0.703 |

| Sequence | log2 fold change of degron read counts |
| --- | --- |
| B26 | -1.14 |
| B27 | -0.896 |
| B28 | -0.349 |
| B29 | 0.704 |
| B30 | -0.83 |
| B31 | 1.79 |
| B32 | -2.72 |
| B33 | -0.956 |
| B34 | 1.05 |
| B35 | 0.455 |
| B36 | -1.55 |
| B37 | -1.39 |
| B38 | -1.4 |
| B39 | -2.49 |
| B40 | 0.814 |
| B41 | -1.45 |
| B42 | -0.776 |
| B43 | 1.22 |
| B44 | -0.000513 |
| B45 | -0.714 |
| B46 | -0.963 |
| B47 | -0.548 |
| B48 | -1.96 |
| B49 | -2.03 |
| B50 | -1.98 |
